This is one part of the list.
Key:
Assay in all cases: glycan array binding signal (z-score within array); higher = stronger binding
Details in all cases: glycan notation: IUPAC condensed, linker removed
[1] = biological target: GlcNAc(b1-3)Gal(b1-4)GlcNAc(b1-3)Gal(b1-4)GlcNAc(b1-3)Gal(b1-4)GlcNAc(b1-3)Gal(b1-4)GlcNAc(b1-2)[GlcNAc(b1-3)Gal(b1-4)GlcNAc(b1-3)Gal(b1-4)GlcNAc(b1-3)Gal(b1-4)GlcNAc(b1-3)Gal(b1-4)GlcNAc(b1-6)]Man(a1-6)[GlcNAc(b1-3)Gal(b1-4)GlcNAc(b1-3)Gal(b1-4)GlcNAc(b1-3)Gal(b1-4)GlcNAc(b1-3)Gal(b1-4)GlcNAc(b1-2)Man(a1-3)]Man(b1-4)GlcNAc(b1-4)[Fuc(a1-6)]GlcNAc
Summary of the method: (§1)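 From the Consortium for Functional Glycomics database, 3228 arrays were curated, keeping only those whose protein sequence was available. Binding is given as a within-array Z-score averaged across arrays sharing a protein sequence and across linkers. Negative Z-scores can be read as non-binding.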

[2] = biological target: GlcNAc(b1-3)Gal(b1-4)GlcNAc(b1-3)Gal(b1-4)GlcNAc(b1-3)GalNAc
Summary of the method: as §1

[3] = biological target: GlcNAc(b1-3)Gal(b1-4)GlcNAc(b1-3)GalNAc
Summary of the method: as §1

[4] = biological target: GlcNAc(b1-3)Gal(b1-4)GlcNAc(b1-3)[GlcNAc(b1-3)Gal(b1-4)GlcNAc(b1-3)]GalNAc
Summary of the method: as §1

[5] = biological target: GlcNAc(b1-3)Gal(b1-4)GlcNAc(b1-6)[Gal(b1-3)]GalNAc
Summary of the method: as §1

[6] = biological target: GlcNAc(b1-3)Gal(b1-4)GlcNAc(b1-6)[GlcNAc(b1-3)Gal(b1-3)]GalNAc
Summary of the method: as §1

[7] = biological target: GlcNAc(b1-3)Gal(b1-4)GlcNAc(b1-6)[GlcNAc(b1-3)]Gal(b1-4)GlcNAc
Summary of the method: as §1

[8] = biological target: GlcNAc(b1-3)GalNAc
Summary of the method: as §1

[9] = biological target: GlcNAc(b1-3)Man
Summary of the method: as §1

[10] = biological target: GlcNAc(b1-3)[GlcNAc(b1-4)][GlcNAc(b1-6)]GlcNAc
Summary of the method: as §1

[11] = biological target: GlcNAc(b1-3)[GlcNAc(b1-6)]Gal(b1-4)GlcNAc
Summary of the method: as §1

[12] = biological target: GlcNAc(b1-3)[GlcNAc(b1-6)]GalNAc
Summary of the method: as §1

[13] = biological target: GlcNAc(b1-4)Gal(b1-4)GlcNAc
Summary of the method: as §1

[14] = biological target: GlcNAc(b1-4)GlcNAc
Summary of the method: as §1

[15] = biological target: GlcNAc(b1-4)GlcNAc(b1-4)GlcNAc
Summary of the method: as §1

[16] = biological target: GlcNAc(b1-4)GlcNAc(b1-4)GlcNAc(b1-4)GlcNAc(b1-4)GlcNAc
Summary of the method: as §1

[17] = biological target: GlcNAc(b1-4)GlcNAc(b1-4)GlcNAc(b1-4)GlcNAc(b1-4)GlcNAc(b1-4)GlcNAc
Summary of the method: as §1

[18] = biological target: GlcNAc(b1-4)[GlcNAc(b1-6)]GalNAc
Summary of the method: as §1

[19] = biological target: GlcNAc(b1-6)Gal(b1-4)GlcNAc
Summary of the method: as §1

[20] = biological target: GlcNAc(b1-6)GalNAc
Summary of the method: as §1

[21] = biological target: GlcNAc6S(b1-3)Gal(b1-4)GlcNAc
Summary of the method: as §1

[22] = biological target: Kdn(a2-3)Gal(b1-3)GalNAc
Summary of the method: as §1

[23] = biological target: Kdn(a2-3)Gal(b1-3)GlcNAc
Summary of the method: as §1

[24] = biological target: Kdn(a2-3)Gal(b1-4)Glc
Summary of the method: as §1

[25] = biological target: Kdn(a2-3)Gal(b1-4)GlcNAc
Summary of the method: as §1

[26] = biological target: Kdn(a2-3)Gal(b1-4)[Fuc(a1-3)]GlcNAc
Summary of the method: as §1

[27] = biological target: Kdn(a2-6)Gal(b1-4)GlcNAc
Summary of the method: as §1

[28] = biological target: Man(a1-2)Man(a1-2)Man(a1-3)Man
Summary of the method: as §1

[29] = biological target: Man(a1-2)Man(a1-2)Man(a1-6)[Man(a1-3)]Man
Summary of the method: as §1

[30] = biological target: Man(a1-2)Man(a1-3)Man
Summary of the method: as §1

B1: Di AAL2 (Agrocybe aegerita) (protein)
chain: MTSNVITQDLPIPVASRGFADIVGFGLDGVVIGRNAVNLQPFLAVKNFAQNAGGWLTTKHVRLIADTTGTGKGDIVGFGNAGVYVSVNNGKNTFADPPKMVIANFGYDAGGWRVEKHLRYLADIRKIGRADIIGFGEKGVLVSRNNGGLNFGPATLVLKDFGYDAGGWRLDRHLRFLADVTGNGHLDIVGFGDKHVFISRNNGDGTFAPAKSVIDNFCIDAGGWKIGDHPRFVADLTGDGTADIIGCGKAGCWVALNNGGGVFGQVKLVINDFGTDKGWQAAKHPRFIADLTGNGRGDVVGFGNAGVYVALNNGDGTFQSAKLVLKDFGVQQGWTVSKHRRFVVDLTGDGCADIIGFGEKETLVSYNDGKGNFGPVKALTNDFSFSGGKWAPETTVCWMANLDSSRHPAPAPMTSNVITQDLPIPVASRGFADIVGFGLDGVVIGRNAVNLQPFLAVKNFAQNAGGWLTTKHVRLIADTTGTGKGDIVGFGNAGVYVSVNNGKNTFADPPKMVIANFGYDAGGWRVEKHLRYLADIRKIGRADIIGFGEKGVLVSRNNGGLNFGPATLVLKDFGYDAGGWRLDRHLRFLADVTGNGHLDIVGFGDKHVFISRNNGDGTFAPAKSVIDNFCIDAGGWKIGDHPRFVADLTGDGTADIIGCGKAGCWVALNNGGGVFGQVKLVINDFGTDKGWQAAKHPRFIADLTGNGRGDVVGFGNAGVYVALNNGDGTFQSAKLVLKDFGVQQGWTVSKHRRFVVDLTGDGCADIIGFGEKETLVSYNDGKGNFGPVKALTNDFSFSGGKWAPETTVCWMANLDSSRH
[1]
  glycan array binding signal (z-score): 5.69
[2]
  glycan array binding signal (z-score): 2.83
[3]
  glycan array binding signal (z-score): 2.06
[4]
  glycan array binding signal (z-score): 1.68
[5]
  glycan array binding signal (z-score): 1.46
[6]
  glycan array binding signal (z-score): 0.959
[7]
  glycan array binding signal (z-score): 2.56
[8]
  glycan array binding signal (z-score): 1.48
[9]
  glycan array binding signal (z-score): -0.31
[10]
  glycan array binding signal (z-score): 0.036
[11]
  glycan array binding signal (z-score): 2
[12]
  glycan array binding signal (z-score): 1.22
[13]
  glycan array binding signal (z-score): -0.305
[14]
  glycan array binding signal (z-score): 0.57
[15]
  glycan array binding signal (z-score): 0.699
[16]
  glycan array binding signal (z-score): 0.501
[17]
  glycan array binding signal (z-score): 0.311
[18]
  glycan array binding signal (z-score): 0.392
[19]
  glycan array binding signal (z-score): -0.325
[20]
  glycan array binding signal (z-score): 0.76
[21]
  glycan array binding signal (z-score): -0.325
[22]
  glycan array binding signal (z-score): -0.327
[23]
  glycan array binding signal (z-score): -0.34
[24]
  glycan array binding signal (z-score): -0.326
[25]
  glycan array binding signal (z-score): -0.335
[26]
  glycan array binding signal (z-score): -0.331
[27]
  glycan array binding signal (z-score): -0.335
[28]
  glycan array binding signal (z-score): -0.342
[29]
  glycan array binding signal (z-score): -0.334
[30]
  glycan array binding signal (z-score): -0.342
